# Data as given in PubChem BioAssay AID1466 (National Center for Advancing Translational Sciences (NCATS), 2008).
# About 10 (0.005%) of roughly 200,000 compounds were called active. The shares of active, inactive and inconclusive entries below differ from those in the screen. Calls follow the shape of the dose curve; as a rule, active = well fitted inhibition curve with a large enough effect; inconclusive = small, poorly fitted or top-dose-only effect, or effect the other way, or another doubt; inactive = no such curve, though single readings can be large or run the other way. No potency is given beside an inconclusive call; the fits are too rough.
# Biological target: Lysosomal alpha-glucosidase (Homo sapiens) (UniProt P10253)
# Assay: qHTS Assay for Inhibitors of Human alpha-Glucosidase as a Potential Chaperone Treatment of Pompe Disease;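 as to activity change, negative = inhibition: plate controls were uninhibited enzyme wells for no effect and no-enzyme background for full effect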
# Details: purified human GAA, 4-MU-alpha-glucoside fluorescence; activity change, negative = inhibition: at 76.9 µM (top of the series) unless noted
# Summary of the method: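 Fluorescence at Ex 365/Em 440 nm from 4-methylumbelliferone reported enzyme activity after 20 min at room temperature. Reactions used 4 nM enzyme and 400 uM substrate at pH 5.0; curves fitted with the Hill equation.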
# Potency is read from the fitted curve at half-maximal effect; tags tell the direction and shape of the fitted curve.
Structure (SMILES),"activity change, negative = inhibition",Potency
CC(=O)c1cc2c(cc1NC(=O)c1ccccc1C)OCO2,inconclusive: 17% [activator],–
COc1ccc(CC(=O)N2CC3(C)CC2CC(C)(C)C3)cc1 (centres undefined),–,"inconclusive [inhibitor, single point]"
COc1ccc(Nc2ccc(N3C(=O)CCCC3=O)cc2[N+](=O)[O-])c(OC)c1,–,"inconclusive [inhibitor, full curve]"
C/C(=N\NC(=O)c1cc(-c2ccco2)nc2ccccc12)c1cccnc1,inconclusive: 19.1% [activator],–
Cc1ccc2cc3c(NC(=O)C4CCCO4)nn(CC(C)C)c3nc2c1 (centres undefined),–,"inconclusive [activator, single point]"
COC(=O)CN1C(=O)C(O)(CC(=O)c2ccc(Br)cc2)c2ccccc21 (centres undefined),inconclusive: -15.9% [inhibitor],–
COCCN1C=C(C(=O)OC)C(c2cc(Br)c(OC)c(OC)c2)C(C(=O)OC)=C1,–,"inconclusive [activator, partial curve]"
COc1ccc(-c2cn(-c3ccc(C)cc3C)c(=O)[nH]2)cc1OC,inconclusive: -16.7% [inhibitor],–
CSC1=C(C#N)C(c2ccccc2Cl)C2=C(N1)c1ccccc1C2=O (centres undefined),inconclusive: 21.7% [activator],–
O=C(Nc1ccc(Cn2cccn2)cc1)c1ccc(COc2cccc(Br)c2)cc1,–,"inconclusive [inhibitor, single point]"
COc1ccc(/C=C/C(=O)OCC(=O)c2c(N)n(C)c(=O)n(C)c2=O)c(OC)c1,inconclusive: 10.7% [activator],–
CCOc1ccc(Cl)cc1S(=O)(=O)N1CCCC1,inconclusive: -18.9% [inhibitor],–
O=C(CSC(=S)N1CCOCC1)N1N=CCC1c1ccccc1 (centres undefined),–,"inconclusive [inhibitor, full curve]"
Nc1ccc2c(C(F)(F)F)cc(C(F)(F)F)nc2n1,inconclusive: 157% [activator],–
COc1ccc(S(=O)(=O)N(CCc2ccccc2)CC(=O)O)cc1C,–,"inconclusive [activator, single point]"
O=C(NC(=S)Nc1ccc2c(c1)OCO2)c1ccc(Cl)cc1,–,"inconclusive [activator, full curve, poor fit]"
Cc1ccc(C(=O)NS(=O)(=O)c2ccccc2)cc1,inconclusive: 20.9% [activator],–
COc1ccccc1OCC(=O)NCCSCc1cccc(Cl)c1,–,"inconclusive [inhibitor, single point]"
CN(C)/C=N/c1nc2nccc(-c3cccnc3)n2n1,–,"inconclusive [activator, partial curve]"
N#C/C(=C\c1cc([N+](=O)[O-])c(N2CCCCC2)cc1N1CCCCC1)c1nn(-c2ccccc2)c(N)c1C#N,–,"inconclusive [inhibitor, single point]"
CC1CN(S(=O)(=O)c2cccc(C(=O)OC/C(O)=C(\C#N)c3nc4ccccc4[nH]3)c2)CC(C)O1 (centres undefined),–,"inconclusive [inhibitor, full curve, poor fit]"
O=C(Oc1ccccc1C(=S)N1CCCCC1)c1cc([N+](=O)[O-])cc([N+](=O)[O-])c1,–,"inconclusive [inhibitor, full curve, poor fit]"

Structure (SMILES),"activity change, negative = inhibition",Potency
COc1ccccc1NC(=O)Nc1nn(C)c2cccc(OC)c12,–,"inconclusive [inhibitor, single point]"
CCN(CC)S(=O)(=O)c1ccc2[nH]cc(C(=O)NCCN3CCCCC3C)c(=O)c2c1 (centres undefined),–,"inconclusive [inhibitor, single point]"
CCOc1c(Cl)cc(C(=O)Nc2ccccc2C(=O)O)cc1Cl,–,"inconclusive [inhibitor, partial curve, poor fit]"
COc1cc(/C=C/C(=O)Nc2ccc(C(C)=O)cc2)cc(OC)c1OC,–,"inconclusive [inhibitor, single point]"
CCOC(=O)C1CCCN(C(=O)c2cc(-c3ccc(C)cc3)nc3ccccc23)C1 (centres undefined),–,"inconclusive [inhibitor, single point]"
CCOc1ccc(NC(=S)N2CCc3cc(OC)c(OC)cc3C2COc2ccc3c(C)cc(=O)oc3c2)cc1 (centres undefined),–,"inconclusive [activator, single point]"
COCCNC(=O)c1c(N)n(CCCn2ccnc2)c2nc3ccccc3nc12,–,"inconclusive [activator, partial curve]"
CCOC(=O)c1cc2sc(C)cc2n1CC(=O)Nc1ccc2c(c1)OCCO2,–,"inconclusive [inhibitor, partial curve, poor fit]"
CC(C)CN(Cc1c(O)ccc2c3c(c(=O)oc12)CCC3)CC(C)C,–,"inconclusive [activator, partial curve]"
c1ccc(Cn2ncc3c(NCc4ccco4)ncnc32)cc1,–,inactive
Cc1ccc(Cl)cc1NC(=O)COC(=O)CC(C)(C)C,–,inactive
Cc1cc(C(=O)COC(=O)c2ccc(O)cc2)c(C)n1CCc1ccc(F)cc1,–,"inconclusive [inhibitor, partial curve, poor fit]"
O=C(N1CCCCCC1)N1CCN(S(=O)(=O)c2ccccc2)CC1,inconclusive: -18.5% [inhibitor],–
Cc1cc(C(F)(F)F)n2nc(-c3cnn(C)c3C(F)(F)F)c(Br)c2n1,–,"inconclusive [inhibitor, single point]"
Cc1ccccc1Cn1c(C(C)O)nc2ccccc21 (centres undefined),–,"inconclusive [inhibitor, single point]"
COc1cnc(-c2ccccn2)nc1Sc1ccc(Cl)cc1,–,"inconclusive [activator, full curve, poor fit]"
CN(C1CCCCC1)S(=O)(=O)c1ccc(C(=O)N2CCN(c3nc4ccccc4s3)CC2)cc1,–,"inconclusive [inhibitor, full curve, poor fit]"
Cc1nc(N2CCN(S(=O)(=O)c3cccc4nonc34)CC2)c2c3c(sc2n1)CCCC3,–,"inconclusive [inhibitor, single point]"
COc1cc(NC(=O)c2ccc(COCC(F)(F)F)o2)cc(OC)c1OC,inconclusive: -16.6% [inhibitor],–
Cc1cc(/C=N/NC(=O)Cn2c3ccccc3c(=O)c3ccccc32)c(C)n1-c1ccccc1,–,"inconclusive [activator, partial curve]"
C=Cn1cc[n+](CC(=O)C(C)(C)C)c1,–,"inconclusive [inhibitor, partial curve, poor fit]"
CCc1cc2c(C)cc(=O)oc2cc1OC(=O)C1CCCN1C(=O)OC(C)(C)C (centres undefined),–,"inconclusive [activator, partial curve]"

Structure (SMILES),"activity change, negative = inhibition",Potency
O=C(C/C=N/OCc1ccc(F)cc1Cl)c1cnc(-c2ccccc2)s1,–,"inconclusive [inhibitor, single point]"
Oc1ccc(Nc2nc(-c3ccc4ccccc4c3)cs2)cc1,–,"inconclusive [inhibitor, single point]"
COC(=O)c1cc(Cl)c(N)cc1OC,–,"inconclusive [inhibitor, single point]"
Cc1ccc(NC(=O)c2sccc2-n2cccc2)c(Cl)c1,inconclusive: -18.1% [inhibitor],–
CN(CC(=O)Nc1ccc(S(=O)(=O)N2CCCC2)cc1)Cc1ccc(Cl)c(Cl)c1,–,"inconclusive [inhibitor, single point]"
CCC(C)(C)C(=O)Nc1cc([N+](=O)[O-])ccc1F,–,"inconclusive [inhibitor, single point]"
N#Cc1c(NC(=O)CSc2ncn[nH]2)sc2c1CCCCC2,–,"inconclusive [inhibitor, partial curve]"
Cc1ccc(S(=O)(=O)Nc2nc3c(s2)C(=O)CC(C)(C)C3)cc1,inconclusive: 15.7% [activator],–
Cc1ccc(S(=O)(=O)NC2=NCN(CCc3ccccc3)CN2)cc1,–,"inconclusive [activator, single point]"
CCCn1nc([N+](=O)[O-])c(C(C#N)c2nc3ccccc3o2)c(Cl)c1=O (centres undefined),–,"inconclusive [inhibitor, full curve]"
COc1ccccc1N1CCN(C(c2ccccc2Cl)c2nnnn2C(C)(C)C)CC1 (centres undefined),–,"inconclusive [inhibitor, single point]"
CNC(=S)NN(c1ccccc1)c1ccccc1,inconclusive: 3.52% [activator],–
COc1ccc(-n2nnnc2SCC(=O)c2ccc(O)c(O)c2)cc1,–,inactive
Cc1ccc2nc(-c3ccc(O)cc3)c(Nc3ccc4c(c3)OCCO4)n2c1,inactive: 1.2% [at 15.4 µM],–
CCOC(=O)CC1C(=O)NCCN1C(=O)c1cc2c(=O)n3cccc(C)c3nc2s1 (centres undefined),–,"inconclusive [activator, partial curve]"
CC(C(=O)NCCN1CCOCC1)(c1ccccc1)c1ccccc1,inconclusive: 9.18% [activator],–
COc1ccc(S(=O)(=O)N2CCCCC2)cc1NC(=O)CN1CCN(C(C)=O)CC1,–,"inconclusive [inhibitor, single point]"
CCN1CCN(C(=O)c2cc3cc4ccc(OC)cc4nc3s2)CC1,–,"inconclusive [activator, single point]"
CCOCC(=O)Nc1ccc(OCc2ccccc2)cc1,inconclusive: 12% [activator],–
CCCCn1c(CN2CCN(C(=O)c3ccco3)CC2)nc2c1c(=O)n(C)c(=O)n2C,–,"inconclusive [inhibitor, single point]"
